Data: PMC5892938
This is one part of the list. At the low end of the ranking the order means little.

biological target: GST-SBP-SLBP (stem-loop binding protein) (UniProt Q14493); assay: targeted RNA Bind-n-Seq; settings: RBNS binding buffer: 25 mM Tris pH 7.5, 150 mM KCl, 3 mM MgCl2, 0.1% Tween, 0.5 mg/mL BSA, 1 mM DTT; 27 nM protein, 750 pM RNA pool; temperature not stated; high values mean tight binding;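 also: DESeq read counts versus GST-SBP nonspecific binding control pulldown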

| Sequence | binding signal (log2 fold change) |
| --- | --- |
| GGUCACGUCUCAAUCAACUCUUCUUCCAGGGAAAGCCCUGGCGUUUUCAACAGCUCGCAGUCAAG | -0.069 |
| GGUCACGUCUCAAUCAACUCAACUUCAGGAGUUUACUCCUGCAUUUUCAACAGCUCGCAGUCAAG | 0.262 |
| GGUCACGUCUCAAUCAACUCUUUCCCAGGAGUUUACUCCUGUAAAUUCAACAGCUCGCAGUCAAG | 0.252 |
| GGUCACGUCUCAAUCAACUCUUACGAGGGGGGGAAAACCCCUUUACCCUCAUCUUCAACAGCUCGCAGUCAAG | -0.298 |
| GGUCACGUCUCAAUCAACUCUAUUUCCAGGGAAAUCCCUGGUUUACUCAACAGCUCGCAGUCAAG | 0.199 |
| GGUCACGUCUCAAUCAACUCCAAAGAGGGGGGGAAAACCCCUUUACCCUCACCUUCAACAGCUCGCAGUCAAG | -0.0478 |
| GGUCACGUCUCAAUCAACUCUCUCGAGGGGGGGAAAACCCCUUUGCCCUCACAAUCAACAGCUCGCAGUCAAG | 0.0962 |
| GGUCACGUCUCAAUCAACUCAAGUCCAGGAGUUUCCUCCUGCUUUUUCAACAGCUCGCAGUCAAG | -0.017 |
| GGUCACGUCUCAAUCAACUCUUCUUCAGGAGUUUCCUCCUGCUAUUUCAACAGCUCGCAGUCAAG | 0.0457 |
| GGUCACGUCUCAAUCAACUCAUCGCCAGGAGUUUUCUCCUGCUAAUUCAACAGCUCGCAGUCAAG | -0.128 |
| GGUCACGUCUCAAUCAACUCUAACGAGGGGGGGAAAACCCCUUUACCCUCCAUAUCAACAGCUCGCAGUCAAG | 0.0337 |
| GGUCACGUCUCAAUCAACUCUAUAGAGGGGGGGAAAACCCCUUUGCCCUCCAUUUCAACAGCUCGCAGUCAAG | -0.245 |
| GGUCACGUCUCAAUCAACUCAUUUUCAGGAGUUUUCUCCUGCAUUUUCAACAGCUCGCAGUCAAG | -0.0658 |
| GGUCACGUCUCAAUCAACUCUCAAGAGGGGGGGAAAACCCCUUUGCCCUCCAUUUCAACAGCUCGCAGUCAAG | -0.255 |
| GGUCACGUCUCAAUCAACUCUCUCGAGGGGGGGAAAACCCCUUUACCCUCACCUUCAACAGCUCGCAGUCAAG | -0.00249 |
| GGUCACGUCUCAAUCAACUCUUUCUCAGGAGUUUUCUCCUGUAAAUUCAACAGCUCGCAGUCAAG | -0.000939 |
| GGUCACGUCUCAAUCAACUCUUUCUCCAGGGAAAGCCCUGGCUUACUCAACAGCUCGCAGUCAAG | 0.166 |
| GGUCACGUCUCAAUCAACUCCCAAGAGGGGGGGAAAACCCCUUUACCCUCGUCCUCAACAGCUCGCAGUCAAG | 0.0208 |

| Sequence | binding signal (log2 fold change) |
| --- | --- |
| GGUCACGUCUCAAUCAACUCUUUUCCAGGAGUUUCCUCCUGUAUUCUCAACAGCUCGCAGUCAAG | 0.123 |
| GGUCACGUCUCAAUCAACUCAUAAGAGGGGGGGAAAACCCCUUUGCCCUCAUCUUCAACAGCUCGCAGUCAAG | -0.359 |
| GGUCACGUCUCAAUCAACUCAAUCUCAGGAGUUUUCUCCUGCUAUGUCAACAGCUCGCAGUCAAG | 0.133 |
| GGUCACGUCUCAAUCAACUCAAUCUCAGGAGUUUUCUCCUGUUUUUUCAACAGCUCGCAGUCAAG | -0.0826 |
| GGUCACGUCUCAAUCAACUCUACUCCCAGGGAAAGCCCUGGCAUUCUCAACAGCUCGCAGUCAAG | -8.9e-05 |
| GGUCACGUCUCAAUCAACUCUAUCUCCAGGGAAAACCCUGGCAAUUUCAACAGCUCGCAGUCAAG | 0.0874 |
| GGUCACGUCUCAAUCAACUCUUCUCCAGGAGUUUCCUCCUGCAAUUUCAACAGCUCGCAGUCAAG | 0.127 |
| GGUCACGUCUCAAUCAACUCAGUCUCCAGGGAAAUCCCUGGUUUUUUCAACAGCUCGCAGUCAAG | -0.203 |
| GGUCACGUCUCAAUCAACUCAUUCCCCAGGGAAAGCCCUGGCAAAUUCAACAGCUCGCAGUCAAG | 0.0362 |
| GGUCACGUCUCAAUCAACUCCUAAGAGGGGGGGAAAACCCCUUUACCCUCCAUAUCAACAGCUCGCAGUCAAG | 0.202 |
| GGUCACGUCUCAAUCAACUCAUCCGCAGGAGUUUUCUCCUGGAAUUUCAACAGCUCGCAGUCAAG | -0.0337 |
| GGUCACGUCUCAAUCAACUCAUUUUCCAGGGAAAGCCCUGGUUUUCUCAACAGCUCGCAGUCAAG | -0.0707 |
| GGUCACGUCUCAAUCAACUCUCCAGAGGGGGGGAAAACCCCUUUACCCUCAUCGUCAACAGCUCGCAGUCAAG | 0.252 |
| GGUCACGUCUCAAUCAACUCAUGUCCAGGAGUUUCCUCCUGCUUUUUCAACAGCUCGCAGUCAAG | -0.0312 |
| GGUCACGUCUCAAUCAACUCAACUCCCAGGGAAAUCCCUGGCUUUUUCAACAGCUCGCAGUCAAG | -0.0242 |
| GGUCACGUCUCAAUCAACUCUUCCUCAGGAGUUUUCUCCUGUUUACUCAACAGCUCGCAGUCAAG | -0.0473 |
| GGUCACGUCUCAAUCAACUCAAAAGAGGGGGGGAAAACCCCUUUACCCUCGUCAUCAACAGCUCGCAGUCAAG | -0.086 |
| GGUCACGUCUCAAUCAACUCUAAAGAGGGGGGGAAAACCCCUUUACCCUCAACAUCAACAGCUCGCAGUCAAG | -0.0977 |
